# According to the supplement of paper PMC3334620:
# Whole data set: some 33,000 sequences, median “E-score (-0.5 to 0.5)” near -0.021, cut for the highest 2% near 0.32. This is one part of the list.
# Target: T1, Zap1 (UniProt P47043)
# T1 sequence: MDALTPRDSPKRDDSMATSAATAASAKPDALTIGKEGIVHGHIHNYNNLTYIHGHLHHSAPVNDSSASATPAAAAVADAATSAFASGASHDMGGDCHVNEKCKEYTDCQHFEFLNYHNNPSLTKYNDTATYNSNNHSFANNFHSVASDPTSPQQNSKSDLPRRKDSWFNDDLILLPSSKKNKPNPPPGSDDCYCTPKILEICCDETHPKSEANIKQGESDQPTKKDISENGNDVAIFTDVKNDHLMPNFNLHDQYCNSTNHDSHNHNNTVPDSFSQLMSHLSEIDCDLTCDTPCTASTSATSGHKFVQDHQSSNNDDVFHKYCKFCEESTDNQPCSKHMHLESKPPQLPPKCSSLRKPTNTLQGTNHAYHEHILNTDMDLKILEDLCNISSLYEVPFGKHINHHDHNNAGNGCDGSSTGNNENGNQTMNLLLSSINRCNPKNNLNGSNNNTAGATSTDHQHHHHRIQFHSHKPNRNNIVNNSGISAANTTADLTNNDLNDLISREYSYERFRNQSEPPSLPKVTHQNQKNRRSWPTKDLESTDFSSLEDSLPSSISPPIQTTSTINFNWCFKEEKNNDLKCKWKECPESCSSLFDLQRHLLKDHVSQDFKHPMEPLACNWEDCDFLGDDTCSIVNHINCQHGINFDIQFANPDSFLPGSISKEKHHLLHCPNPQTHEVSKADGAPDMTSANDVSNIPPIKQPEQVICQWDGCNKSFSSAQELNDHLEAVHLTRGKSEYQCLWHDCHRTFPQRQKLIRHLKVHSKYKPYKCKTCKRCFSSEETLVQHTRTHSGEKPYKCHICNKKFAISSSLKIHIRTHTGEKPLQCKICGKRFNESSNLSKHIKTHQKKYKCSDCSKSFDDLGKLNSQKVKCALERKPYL
# Assay: PBM E-score (8-mer binding enrichment) (E-score (-0.5 to 0.5)); higher = stronger / more preferred TF binding; most listed sequences are background and not binding sites
# Conditions: protein concentration: 200 nM; construct: GST-full length
# In short: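 E-scores (a modified Wilcoxon-Mann-Whitney statistic) were assigned by the Universal PBM Analysis Suite to every ungapped eight-base word pooled with its reverse complement. The input came from universal all-10-mer Agilent arrays made double-stranded by primer extension and probed with GST-tagged yeast transcription factors at about 100-200 nM. Fluorescent anti-GST detected bound protein, and masliner normalised the scans.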
row,Sequence,PBM E-score
1,GGCGGGCA,-0.115
2,ACGCCCAG,-0.145
3,CCGCACCC,0.177
4,CGCCGACC,-0.168
5,AGGCATCA,-0.153
6,CGAAGAGA,0.0227
7,TCAGATAA,0.0687
8,TATATGCA,0.052
9,CGCCAGCA,-0.24
10,CAACAACA,0.0865
11,GTAGTAGA,0.0536
12,CGGAGCAG,-0.186
13,ATGCCTCA,-0.251
14,CAGTGGAC,-0.0561
15,GCTGGCGA,-0.192
16,AGTACGAA,0.0797
17,TAGTCGAA,-0.174
18,CTACATAC,0.0497
19,ATGCCACC,-0.11
20,CGGCGAGA,-0.0754
21,ATTATAGC,-0.00614
22,CCTGCATC,-0.0964
23,AATGCCAG,-0.126
24,ACGATACT,-0.112
25,ATGCGTAG,-0.103

row,Sequence,PBM E-score
1,CTACGGCA,-0.121
2,GATTTAAC,0.00999
3,GTCGTTCA,-0.0173
4,CCGGCCAA,-0.161
5,GGTTTCTA,0.158
6,CTGTGTTA,-0.0318
7,ATTATCCA,0.107
8,ATCACTTA,0.00193
9,GTGGGGCA,0.0703
10,GGCTCTGA,-0.167
11,ATTAATCG,0.112
12,TCTCATCA,0.0193
13,CTGTAGGC,-0.118
14,CACGTTAC,0.0657
15,CTTACTTA,0.0622
16,CTACACTA,-0.036
17,GGTGTAAA,-0.00155
18,ATAGTTAC,0.114
19,AACCAACC,0.126
20,ACAGGTCG,0.0832
21,AATTGTGG,0.00368
22,AAAAGGGC,0.149
23,AGGTAGAA,0.0149
24,CGAGTTGA,0.0421
25,GCGCATCA,-0.0115

row,Sequence,PBM E-score
1,GCACGGAA,-0.302
2,AAAGGTGC,-0.0887
3,GGGACTAA,0.0381
4,AGCTGCTC,-0.219
5,AAGTCCAA,0.0986
6,ATCGTACC,0.0624
7,CAGCTTAC,-0.00935
8,CACGCAAA,-0.0296
9,AATTTCCA,0.0237
10,GGTAGGCA,0.00685
11,TACAGGGA,-0.124
12,AAGCGACC,-0.0943
13,CGTCGGAC,-0.054
14,AACGACCA,0.119
15,AGAACTGG,0.0572
16,GGGGGCTA,-0.298
17,ATGCTTCA,-0.0368
18,GGAGGACA,-0.176
19,AATGGCAT,-0.0795
20,AATACTGA,-0.0588
21,GGACCAGA,0.0948
22,ACATACGG,-0.0375
23,GGTCTAAA,0.19
24,CTCCACCA,-0.157
25,TAAGACCA,0.245

row,Sequence,PBM E-score
1,CGAGCTGC,-0.163
2,GAAACAAC,0.069
3,ACTTTCTA,0.0335
4,AGTCCCCG,-0.184
5,AGTGAGAT,-0.203
6,AATTGATC,-0.102
7,GAAACACC,0.164
8,CCGCTGGC,-0.00629
9,CATAAGGG,0.274
10,GCCCACTA,-0.221
11,AGCCTATA,-0.0547
12,AGGGTCGG,0.126
13,AGAGCACT,-0.0825
14,CGGGTATA,0.317
15,ATGCGTAA,0.0259
16,TATACCCA,0.0427
17,CCCTTGCG,0.00153
18,AGTGTATC,0.0414
19,CGCAAGTC,-0.279
20,CTACCCGA,0.25
21,ATGACCGA,0.0244
22,AGAGGCGG,0.0791
23,CGGGCACC,0.0621
24,AAACTCTG,0.0245
25,ATTTTCTA,0.122

row,Sequence,PBM E-score
1,GGTACCAA,0.337
2,AAAAGTTC,0.124
3,TAGTGAAA,0.0363
4,CCCTAGGC,-0.0419
5,CGTACTAG,-0.128
6,GGACCTTA,-0.00744
7,CACTGTCC,-0.0413
8,CATTTGAA,0.0106
9,CTCTCCGC,-0.24
10,CTGCAACC,0.187
11,AACTGATA,-0.068
12,CCCAGCCG,-0.107
13,GTACTTTA,0.104
14,AATAGATG,0.0253
15,GTTAGTTA,0.211
16,CGTGCTGC,-0.101
17,ACACTCGA,-0.109
18,GCCGAGCC,-0.273
19,CACGGGAC,-0.0821
20,GCCCAAGC,-0.132
21,AATGCGAC,-0.0561
22,CTAAATTA,0.103
23,GCAGCCGC,-0.0832
24,GCTTGGAC,-0.326
25,AGTAGCGC,-0.133

row,Sequence,PBM E-score
1,GGTCGCCA,0.188
2,AAAACTTG,0.186
3,CCATCCTA,-0.114
4,CGGGCCAC,0.125
5,TAGAATCA,-0.112
6,ACTAGTGA,-0.146
7,ATTAACCC,0.334
8,CTCCCTTA,-0.21
9,CCCATGTC,-0.158
10,AAGGTGCT,0.00603
11,CCCAATGA,-0.0489
12,TCGAAAGA,0.00149
13,CTAAGCAC,-0.0999
14,GACTAGGC,-0.182
15,AACAACCA,0.319
16,GGTATGGA,0.0523
17,CTCCATCC,-0.206
18,ACGCGTAG,-0.0985
19,CATCACGG,0.0839
20,ATACAAGA,0.0262
21,GGATCTAC,-0.276
22,CGATGTAA,-0.0289
23,AACTGACC,0.0678
24,AATGAGCG,-0.0744
25,CGATATCC,0.16

row,Sequence,PBM E-score
1,GCGTCCAC,-0.157
2,AATTGGTG,-0.0331
3,CGTATAAC,0.2
4,ACGGCGTC,-0.107
5,ATACTGCC,-0.15
6,GCTTAAAA,0.164
7,CATTTCCA,-0.00225
8,CAGTGTCC,0.0369
9,CCACCTTA,0.342
10,GTCAGGAA,0.09
11,ATAGCTTG,-0.0296
12,GTAAAATA,0.235
13,ACGCTGAT,-0.1
14,AACCGGCT,0.139
15,CTCGCCCC,-0.294
16,TAGTAAGA,0.033
17,ATAATAAG,0.12
18,CCTCACTC,0.0483
19,CGGCGGTC,0.00317
20,AGGCTAAC,-0.0255
21,GTGTTGTA,-0.13
22,CAACACCC,-0.0121
